# Measured values published in the supplement of paper PMC8728848.
# The other results are listed elsewhere or left out.
# Assays:
# Test in all cases: glycan array binding signal (z-score within array); higher = stronger binding
# Settings in all cases: glycan notation: IUPAC condensed, linker removed; mutation: R85A
# [1] = biological target: GlcNAc(b1-3)Gal(b1-4)GlcNAc(b1-3)Gal(b1-4)GlcNAc
# Procedure, shortened: (§1)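 Glycan array data came from 3228 arrays in the Consortium for Functional Glycomics database, and only arrays with an available protein sequence were kept. Glycan names were put into IUPAC-condensed notation, and columns mapping to the same glycan were averaged. The binding signal is a within-array Z-score, averaged across arrays of one protein sequence run at different concentrations or buffers and across linkers. A negative Z-score can be read as non-binding.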
# GlcNAc(b1-3)GalNAc = biological target: GlcNAc(b1-3)GalNAc
# Procedure, shortened: as §1
# GlcNAc(b1-3)Man = biological target: GlcNAc(b1-3)Man
# Procedure, shortened: as §1
# [2] = biological target: GlcNAc(b1-3)[GlcNAc(b1-4)][GlcNAc(b1-6)]GlcNAc
# Procedure, shortened: as §1
# [3] = biological target: GlcNAc(b1-3)[GlcNAc(b1-6)]Gal(b1-4)GlcNAc
# Procedure, shortened: as §1
# [4] = biological target: GlcNAc(b1-3)[GlcNAc(b1-6)]GalNAc
# Procedure, shortened: as §1
# [5] = biological target: GlcNAc(b1-4)Gal(b1-4)GlcNAc
# Procedure, shortened: as §1
# GlcNAc(b1-4)GlcNAc = biological target: GlcNAc(b1-4)GlcNAc
# Procedure, shortened: as §1
# [6] = biological target: GlcNAc(b1-4)GlcNAc(b1-4)GlcNAc
# Procedure, shortened: as §1
# [7] = biological target: GlcNAc(b1-4)GlcNAc(b1-4)GlcNAc(b1-4)GlcNAc(b1-4)GlcNAc
# Procedure, shortened: as §1
# [8] = biological target: GlcNAc(b1-4)GlcNAc(b1-4)GlcNAc(b1-4)GlcNAc(b1-4)GlcNAc(b1-4)GlcNAc
# Procedure, shortened: as §1
# [9] = biological target: GlcNAc(b1-4)[GlcNAc(b1-6)]GalNAc
# Procedure, shortened: as §1
# [10] = biological target: GlcNAc(b1-6)Gal(b1-4)GlcNAc
# Procedure, shortened: as §1
# GlcNAc(b1-6)GalNAc = biological target: GlcNAc(b1-6)GalNAc
# Procedure, shortened: as §1
# GlcNAc3Prop(b1-4)GlcNAc = biological target: GlcNAc3Prop(b1-4)GlcNAc
# Procedure, shortened: as §1
# [11] = biological target: GlcNAc6S(b1-3)Gal(b1-4)GlcNAc
# Procedure, shortened: as §1
# Kdn(a2-3)Gal(b1-3)GalNAc = biological target: Kdn(a2-3)Gal(b1-3)GalNAc
# Procedure, shortened: as §1
# Kdn(a2-3)Gal(b1-3)GlcNAc = biological target: Kdn(a2-3)Gal(b1-3)GlcNAc
# Procedure, shortened: as §1
# Kdn(a2-3)Gal(b1-4)Glc = biological target: Kdn(a2-3)Gal(b1-4)Glc
# Procedure, shortened: as §1
# Kdn(a2-3)Gal(b1-4)GlcNAc = biological target: Kdn(a2-3)Gal(b1-4)GlcNAc
# Procedure, shortened: as §1
# [12] = biological target: Kdn(a2-3)Gal(b1-4)[Fuc(a1-3)]GlcNAc
# Procedure, shortened: as §1
# Kdn(a2-6)Gal(b1-4)GlcNAc = biological target: Kdn(a2-6)Gal(b1-4)GlcNAc
# Procedure, shortened: as §1
# [13] = biological target: Man(a1-2)Man(a1-2)Man(a1-3)Man
# Procedure, shortened: as §1
# [14] = biological target: Man(a1-2)Man(a1-2)Man(a1-6)[Man(a1-3)]Man
# Procedure, shortened: as §1
# Man(a1-2)Man(a1-3)Man = biological target: Man(a1-2)Man(a1-3)Man
# Procedure, shortened: as §1
# [15] = biological target: Man(a1-2)Man(a1-3)[Man(a1-2)Man(a1-6)]Man
# Procedure, shortened: as §1
# [16] = biological target: Man(a1-2)Man(a1-3)[Man(a1-2)Man(a1-6)]Man(a1-6)[Man(a1-2)Man(a1-2)Man(a1-3)]Man
# Procedure, shortened: as §1
# [17] = biological target: Man(a1-2)Man(a1-3)[Man(a1-2)Man(a1-6)]Man(a1-6)[Man(a1-2)Man(a1-2)Man(a1-3)]Man(b1-4)GlcNAc(b1-4)GlcNAc
# Procedure, shortened: as §1
# [18] = biological target: Man(a1-2)Man(a1-3)[Man(a1-6)]Man(a1-6)[Man(a1-2)Man(a1-3)]Man(b1-4)GlcNAc(b1-4)GlcNAc
# Procedure, shortened: as §1
# [19] = biological target: Man(a1-2)Man(a1-6)[Man(a1-3)]Man(a1-6)[Man(a1-2)Man(a1-2)Man(a1-3)]Man
# Procedure, shortened: as §1
# [20] = biological target: Man(a1-2)Man(a1-6)[Man(a1-3)]Man(a1-6)[Man(a1-2)Man(a1-2)Man(a1-3)]Man(b1-4)GlcNAc(b1-4)GlcNAc
# Procedure, shortened: as §1
# Man(a1-3)[Man(a1-6)]Man = biological target: Man(a1-3)[Man(a1-6)]Man
# Procedure, shortened: as §1
# [21] = biological target: Man(a1-3)[Man(a1-6)]Man(a1-6)[Man(a1-2)Man(a1-3)]Man(b1-4)GlcNAc(b1-4)GlcNAc
# Procedure, shortened: as §1
# [22] = biological target: Man(a1-3)[Man(a1-6)]Man(a1-6)[Man(a1-3)]Man
# Procedure, shortened: as §1
# [23] = biological target: Man(a1-3)[Man(a1-6)]Man(a1-6)[Man(a1-3)]Man(b1-4)GlcNAc(b1-4)GlcNAc
# Procedure, shortened: as §1
# [24] = biological target: Man(a1-3)[Man(a1-6)]Man(b1-4)GlcNAc(b1-4)GlcNAc
# Procedure, shortened: as §1
# Man(a1-6)Man = biological target: Man(a1-6)Man
# Procedure, shortened: as §1
# Man(b1-4)GlcNAc = biological target: Man(b1-4)GlcNAc
# Procedure, shortened: as §1
# Neu5Ac(a2-3)Gal = biological target: Neu5Ac(a2-3)Gal
# Procedure, shortened: as §1
# [25] = biological target: Neu5Ac(a2-3)Gal(b1-3)GalNAc
# Procedure, shortened: as §1
# [26] = biological target: Neu5Ac(a2-3)Gal(b1-3)GalNAc(b1-3)Gal(a1-4)Gal(b1-4)Glc
# Procedure, shortened: as §1
# [27] = biological target: Neu5Ac(a2-3)Gal(b1-3)GalNAc(b1-4)[Neu5Ac(a2-3)]Gal(b1-4)Glc
# Procedure, shortened: as §1
# [28] = biological target: Neu5Ac(a2-3)Gal(b1-3)GalNAc6S
# Procedure, shortened: as §1
# [29] = biological target: Neu5Ac(a2-3)Gal(b1-3)GlcNAc
# Procedure, shortened: as §1
# [30] = biological target: Neu5Ac(a2-3)Gal(b1-3)GlcNAc(b1-2)Man(a1-3)[Neu5Ac(a2-3)Gal(b1-3)GlcNAc(b1-2)Man(a1-6)]Man(b1-4)GlcNAc(b1-4)GlcNAc
# Procedure, shortened: as §1
binder,measurement,setting,value
"rAAL (Agrocybe aegerita), Q6WY08 (protein) MQGVNIYNISAGTSVDLAAPVTTGDIVTFFSSALNLNAGAGNPNNTTLNLFAENGAYLLHIAFRLQENVIIFNSRQPDGPWLVEQAVSDVANQFAGIDGKAMVTVFDHGDKYQVVINEKTVIQYTKQISGLTLSLSYNATEETSIFSTVVEAVTYTGLALEHHHHHH",glycan array binding signal (z-score),[1],-0.136
same,glycan array binding signal (z-score),GlcNAc(b1-3)GalNAc,-0.138
same,glycan array binding signal (z-score),GlcNAc(b1-3)Man,-0.142
same,glycan array binding signal (z-score),[2],-0.14
same,glycan array binding signal (z-score),[3],-0.134
same,glycan array binding signal (z-score),[4],-0.136
same,glycan array binding signal (z-score),[5],-0.131
same,glycan array binding signal (z-score),GlcNAc(b1-4)GlcNAc,-0.132
same,glycan array binding signal (z-score),[6],-0.133
same,glycan array binding signal (z-score),[7],-0.144
same,glycan array binding signal (z-score),[8],-0.123
same,glycan array binding signal (z-score),[9],-0.133
same,glycan array binding signal (z-score),[10],-0.134
same,glycan array binding signal (z-score),GlcNAc(b1-6)GalNAc,-0.127
same,glycan array binding signal (z-score),GlcNAc3Prop(b1-4)GlcNAc,-0.137
same,glycan array binding signal (z-score),[11],-0.13
same,glycan array binding signal (z-score),Kdn(a2-3)Gal(b1-3)GalNAc,-0.095
same,glycan array binding signal (z-score),Kdn(a2-3)Gal(b1-3)GlcNAc,-0.046
same,glycan array binding signal (z-score),Kdn(a2-3)Gal(b1-4)Glc,-0.103
same,glycan array binding signal (z-score),Kdn(a2-3)Gal(b1-4)GlcNAc,-0.143
same,glycan array binding signal (z-score),[12],-0.131
same,glycan array binding signal (z-score),Kdn(a2-6)Gal(b1-4)GlcNAc,-0.116
same,glycan array binding signal (z-score),[13],-0.12
same,glycan array binding signal (z-score),[14],-0.129
same,glycan array binding signal (z-score),Man(a1-2)Man(a1-3)Man,-0.134
same,glycan array binding signal (z-score),[15],-0.128
same,glycan array binding signal (z-score),[16],-0.137
same,glycan array binding signal (z-score),[17],-0.124
same,glycan array binding signal (z-score),[18],-0.136
same,glycan array binding signal (z-score),[19],-0.135
same,glycan array binding signal (z-score),[20],-0.139
same,glycan array binding signal (z-score),Man(a1-3)[Man(a1-6)]Man,-0.125
same,glycan array binding signal (z-score),[21],-0.133
same,glycan array binding signal (z-score),[22],-0.134
same,glycan array binding signal (z-score),[23],-0.139
same,glycan array binding signal (z-score),[24],-0.129
same,glycan array binding signal (z-score),Man(a1-6)Man,-0.137
same,glycan array binding signal (z-score),Man(b1-4)GlcNAc,-0.112
same,glycan array binding signal (z-score),Neu5Ac(a2-3)Gal,-0.143
same,glycan array binding signal (z-score),[25],0.645
same,glycan array binding signal (z-score),[26],0.132
same,glycan array binding signal (z-score),[27],0.345
same,glycan array binding signal (z-score),[28],-0.018
same,glycan array binding signal (z-score),[29],-0.078
same,glycan array binding signal (z-score),[30],-0.144
